# Assay results as given in the RNAGym collection of RNA variant scans (doi:10.7554/elife.90254).
# The source gives no read counts; variants with many changes may rest on few reads.
# B1: LINE1-mini (parent)
# chain: GGCAGAGCUCAACACAGCGUGGCAAAGUGGCUGUGGCUAGACUGCC
# Variants of: B1
# Assay: self-cleavage, relative activity (ratio to wild type); higher = more cleavage; in vitro, sequencing; the parent is a self-cleaving ribozyme
row,Variant,self-cleavage
1,C8U G27U A41C C46G,0.53
2,C8U C31G G35C,0.21
3,C8U G17U G36U C42G,0.09
4,C8U C13G U20C G30U C31A,0.11
5,C8U A26G G36A,0.05
6,C8U A12U G22A,0.08
7,C8U C18A G21A C46U,0.64
8,C8U C10U C15G A24U A25C,0.03
9,C8U A14G A39G,0.07
10,C8U G33U G35U G36U,0.02
11,C8U C10G C23G,0.02
12,C8U G17U C18A G27U,0.3
13,C8U U9C G21U C37G,0.03
14,C8U C10U A14C,0.05
15,C8U C18A A25C,0.07
16,C8U G27U U38C C42U,0.19
17,C8U C10A A14C A24U,0.02
18,C8U G17C G36U U43A,0.12
19,C8U C10G G17U C23U,0.03
20,C8U C15A C18G,0.01
21,C8U C10A A26U G30U G35C U38G,0.01

row,Variant,self-cleavage
1,C8U G21A C37U,0.14
2,C8U G29A G44C,0.11
3,C8U A14C C23G,0.18
4,C8U C37A C45U,0.21
5,C8U A12C A25C C31A A41C,0.02
6,C8U U9G C13A G17U A25C,0.06
7,C8U G19A G21A U38G C42U,0.03
8,C8U U9G A12C,0.04
9,C8U A12C G17A C45A,0.02
10,C8U C15U G22A G27A C31A C42G,0.04
11,C8U C13U G40U,0.12
12,C8U C18A A25C G35A C42U C46U,0.1
13,C8U C13A G27U G36C,0.32
14,C8U A12G A14C U20A U43C G44C,0.06
15,C8U U9C G29U G30U,0.13
16,C8U C10G G30C U38C,0.02
17,C8U G22U C23U G36A,0.74
18,C8U C18G U43A,0.07
19,C8U C13G A14C G27A G30C,0.03
20,C8U C10G U20A G30A C45A,0
21,C8U U9A A16U,0.25

row,Variant,self-cleavage
1,C8U G22C G33U G44A C45U,0.05
2,C8U C15A G35U,0.14
3,C8U A25C G40C C42G,0.06
4,C8U C31A G33A,0.12
5,C8U G27U A39G,0.01
6,C8U A12U A26U G30U,0.13
7,C8U A14C U20C G21A,0.02
8,C8U A12C G33U U34A G36A,0.03
9,C8U C13A G17C C46U,0.22
10,C8U A16U G17C U20A,0.11
11,C8U A16G A39G,0.08
12,C8U C10A A14U C15G C42U G44C,0.01
13,C8U A14U A41G,0.08
14,C8U C23U A41C,0.06
15,C8U C15U G17A,0.12
16,C8U A12G G35U,0.03
17,C8U A12U A14U G17C U38A,0.12
18,C8U A16G G33A U43A,0.07
19,C8U G17A U32A C37A,0.2
20,C8U G29C U38C A41U,0.17
21,C8U C31U C46G,0.35

row,Variant,self-cleavage
1,C8U C15A C42A,0.2
2,C8U A24U G36U,0.17
3,C8U A26G C42U,0.09
4,C8U U9G G17C C18U,0.02
5,C8U C15U G29A U34A C45G,0
6,C8U U9G G27A G29U A41C,0.05
7,C8U C15G G27U C46U,0.12
8,C8U G33A U34G A39C G44A,0.01
9,C8U A14U U28C G30U A39U A41G C46U,0.02
10,C8U G21A G22A U43C,0.01
11,C8U C18U U20A U32C,0.06
12,C8U G17C G19A U20G G21C,0.04
13,C8U U20G A39G,0
14,C8U U20G A41G,0.02
15,C8U C13A G40U C45A,0.04
16,C8U C10U A11G A14U C23A U34C,0.03
17,C8U C13A C15U G35C C42G,0.7
18,C8U C10U G36U,0.03
19,C8U U9G C31U C42U,0.03
20,C8U G29U C31G C42U,0.06
21,C8U A16G C37U,0.04
